Measurements taken from PubChem BioAssay AID588855 (National Center for Advancing Translational Sciences (NCATS), 2011).
The campaign covered roughly 410,000 compounds. About 5,000 (1.2%) were called active. This list was built around the results that the source calls inconclusive (neither active nor inactive); the mix of calls is not that of the screen. The call rests on the fitted dose curve; in most records, active means well fitted inhibition curve with a large enough effect; inconclusive means small, poorly fitted or top-dose-only effect; inactive means no such curve, though single readings can be large or run the other way. A potency beside an inconclusive call is a rough fit, not a confirmed value.

assay: qHTS for Inhibitors of TGF-b; settings: HepG2 CAGA-GFP TGF-b/SMAD3 reporter, GFP fluorescence, 18 h, TGF-beta stimulated, 500 pg/mL final; series mostly up to 46.1 µM; activity, negative = inhibition: at the top concentration; further: nearly all actives have a fitted effect of over 65% in size
How it was run: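 TGF-beta reporter screen: HEPG2 CAGA-GFP, 1% FBS, 500 pg/mL TGF-beta final, 18 h; per-cell GFP summed per well; curves fitted and categorized by class.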
On the % scale 0 is the no-effect control and ±100 the full control effect; potency means the concentration at half of the fitted maximal effect; tags describe the fitted curve by direction and shape.

| Structure (SMILES) | Potency | activity, negative = inhibition |
| --- | --- | --- |
| CCOC(=O)N1CCN(C(=O)c2cc(COc3ccc(OC)cc3Cl)on2)CC1 | inconclusive: 35.5 µM [inhibitor, single point] | – |
| O=C(Nc1nnc(S(=O)(=O)N2CCCc3ccccc32)s1)c1ccccc1Cl | inconclusive: 0.562 µM [inhibitor, full curve, poor fit] | – |
| CCCCN1C(=N)N([C@@H](C)CN2CCC[C@H]2CN2C(N)=NC[C@H]2CC(C)C)C[C@H]1[C@H](C)CC | – | inactive: 17.3% |
| Cc1ccc(-c2cnn(-c3ccccc3)c2N)cc1 | inconclusive: 10 µM [inhibitor, partial curve, poor fit] | – |
| COc1ccc(-c2csc(Nc3ccc(O)cc3)n2)cc1 | inconclusive: 7.94 µM [inhibitor, partial curve] | – |
| O=C(/C=C/c1cccc(C(F)(F)F)c1)Nc1cccc(C(F)(F)F)c1 | inconclusive: 35.5 µM [inhibitor, single point] | – |
| Cc1csc(NC(=O)C2CCN(S(=O)(=O)c3ccccc3)CC2)n1 | inconclusive: 22.4 µM [inhibitor, single point] | – |
| Cc1nc2ccn(Cc3ccccc3)c(=O)c2cc1C(=O)N1CCN(c2ccccc2F)CC1 | inconclusive: 3.98 µM [inhibitor, partial curve, poor fit] | – |
| Cc1cc(C)cc(NC(=S)Nc2ccc(Cl)c(Cl)c2)c1 | inconclusive: 35.5 µM [inhibitor, single point] | – |
| Cc1ccc(NC(=O)c2nc(S(=O)(=O)Cc3ccccc3F)ncc2Cl)cc1C | inconclusive: 12.6 µM [inhibitor, single point] | – |
| Cc1cc(F)ccc1S(=O)(=O)Nc1ccc2oc3c(c2c1)CC(C)CC3 (centres undefined) | inconclusive: 35.5 µM [inhibitor, single point] | – |
| CCOc1ccccc1C(=O)NC1(C(F)(F)F)NC(=O)N(CCc2ccc(OC)c(OC)c2)C1=O (centres undefined) | inconclusive: 10 µM [inhibitor, partial curve, poor fit] | – |
| Cc1cccc(C(=O)O/N=C/c2ccc(Br)cc2)c1 | inconclusive: 1.26 µM [inhibitor, partial curve, poor fit] | – |
| CC1CCCN(CCOc2cccc(Oc3ccccc3)c2)C1 (centres undefined) | – | inactive: -23.2% |
| CN(C)CCCN(C(=O)c1ccc([N+](=O)[O-])s1)c1nc2cc3c(cc2s1)OCCO3 | inconclusive: 12.6 µM [inhibitor, partial curve, poor fit] | – |
| CN1CCN(/[N+]([O-])=N/Oc2ccc([N+](=O)[O-])cc2[N+](=O)[O-])CC1 | inconclusive: 20 µM [inhibitor, single point] | – |
| COc1ccccc1N1CCN(C(=O)c2cn(CC(C)C)c(=O)c3c2c2ccccc2n3C)CC1 | inconclusive: 35.5 µM [inhibitor, single point] | – |
| O=C(CSCc1cnn(-c2ccccc2)c1-n1cccc1)NCc1ccc(Cl)cc1 | inconclusive: 35.5 µM [inhibitor, partial curve, poor fit] | – |
| COc1ccc2ccccc2c1/C=N/NC(=O)c1sc(N)c(C#N)c1C | – | inactive: -38.2% |
| CN1C(=O)Cc2cc(S(=O)(=O)NCCc3ccc(Cl)cc3)ccc21 | inconclusive: 0.562 µM [inhibitor, partial curve, poor fit] | – |
| Cn1ccnc1SCC(=O)c1cccc(C(F)(F)F)c1 | – | inactive: -18.3% |
| O=C1/C(=C/c2ccncc2)CCc2ccccc21 | inconclusive: 25.1 µM [inhibitor, single point] | – |

| Structure (SMILES) | Potency | activity, negative = inhibition |
| --- | --- | --- |
| COc1cccc(C2NC(=O)NC(C)=C2C(=O)OCCSC)c1OC (centres undefined) | – | inactive: -3.57% |
| CCOC(=O)N1CCN(C2=C(NS(=O)(=O)c3ccc(NC(C)=O)cc3)C(=O)c3ccccc3C2=O)CC1 | inconclusive: 22.4 µM [inhibitor, partial curve, poor fit] | – |
| O=C(CN1C(=O)c2ccccc2C1=O)Nc1ccccc1F | inconclusive: 3.16 µM [inhibitor, single point] | – |
| Cc1ccc(-c2ccc3c(c2)O[C@H](CN(C)C(=O)Nc2ccc(C(F)(F)F)cc2)[C@H](C)CN([C@H](C)CO)S3(=O)=O)cc1 | active: 22.4 µM | – |
| COc1ccccc1NC(=O)CSC1=Nc2ccccc2C2=NC(CCC(=O)NCCc3ccccc3)C(=O)N12 (centres undefined) | – | inactive: 15.2% |
| CCN1C(=O)[C@H]2[C@@H](c3ccc(-c4ccc(F)cc4)cc3)N3CCCC[C@@]3(C(=O)OC)[C@H]2C1=O | inconclusive: 35.5 µM [inhibitor, single point] | – |
| CC(C)(C)c1ccc(CN(Cc2ccco2)Cc2nnnn2C2CCCC2)cc1 | inconclusive: 35.5 µM [inhibitor, single point] | – |
| COc1ccc(CCC(=O)NCC(c2ccco2)N2CCc3ccccc32)cc1 (centres undefined) | inconclusive: 14.1 µM [inhibitor, single point] | – |
| Cc1cccc(NC(=O)C2CCCN2C(=O)Oc2ccccc2)c1C (centres undefined) | inconclusive: 2.51 µM [inhibitor, full curve, poor fit] | – |
| CCc1nc2ccc(C(=O)N3CCCCC3)cn2c1N(C)CCCc1ccccc1 | inconclusive: 12.6 µM [inhibitor, single point] | – |
| CC1(C(=O)NS(=O)(=O)c2ccccc2Cl)CCN1C(=O)C1(c2ccccc2)CC1 (centres undefined) | – | inactive: -5.35% |
| CCOC(=O)c1cc(S(=O)(=O)NCc2ccc(C)cc2)[nH]n1 | inconclusive: 35.5 µM [inhibitor, single point] | – |
| Cc1nn(CCc2n[nH]c(=S)n2C2CCCCC2)c(C)c1Br | – | inactive: -23.9% |
| COc1ccc(CCN2C(=O)c3[nH]nc(-c4ccccc4O)c3C2c2ccc(OC)cc2)cc1 (centres undefined) | inconclusive: 22.4 µM [inhibitor, single point] | – |
| COc1cccc(C(NC(C)=O)c2nc(-c3csc4ccccc34)cs2)c1 (centres undefined) | inconclusive: 28.2 µM [inhibitor, single point] | – |
| CCCC1=[N+](CC(C)=O)CCn2c(C)ccc21 | – | inactive: 7.47% |
| CN(C)CCNc1ccc(CO)c2sc3ccc(O)cc3c(=O)c12 | active: 14.1 µM | – |
| O=C(Nc1ccc(Cl)cc1)c1nc[nH]c1C(=O)Nc1ccccc1F | – | inactive: 6.03% |
| CCOc1ccc(CCNC(=O)c2ccc3c(c2)c(C)c(C)n3Cc2ccccc2)cc1OCC | inconclusive: 0.631 µM [inhibitor, partial curve, poor fit] | – |
| CCC(C)n1c(=N)c(C#N)cc2c(=O)n3cccc(C)c3nc21 (centres undefined) | inconclusive: 35.5 µM [inhibitor, single point] | – |
| CCn1c(=O)c(C(=O)NCCCc2ccccc2)c(O)c2ccccc21 | inconclusive: 35.5 µM [inhibitor, single point] | – |
| O=C(NC1=NCCS1)c1cc(-c2cccc(Br)c2)nc2ccccc12 | – | inactive: -32.5% |

| Structure (SMILES) | Potency | activity, negative = inhibition |
| --- | --- | --- |
| CCCCn1c(-c2ccc(Br)cc2F)nc2c1c(=O)[nH]c(=O)n2CC(C)C | inconclusive: 28.2 µM [inhibitor, single point] | – |
| COc1ccc(C(C)=O)cc1COC(=O)c1cnc(Cl)c(Cl)c1 | inconclusive: 0.708 µM [inhibitor, full curve, poor fit] | – |
| COc1ccc2[nH]c(=O)c(CN(Cc3ccco3)C(=O)c3ccccc3)cc2c1 | inconclusive: 35.5 µM [inhibitor, single point] | – |
| O=C(COc1c(F)c(F)c(C(F)(F)F)c(F)c1F)Nc1ccc(N2CCOCC2)c(Cl)c1 | inconclusive: 35.5 µM [inhibitor, single point] | – |
| Cn1nnnc1Sc1ncnc2scc(-c3cccc(F)c3)c12 | active: 10 µM | – |
| CCCCCCCNC(=O)c1ccc(N2CCC3(CC2)OCCO3)c([N+](=O)[O-])c1 | inconclusive: 35.5 µM [inhibitor, single point] | – |
| CCN(CC)CCCCNc1ncc2cc(-c3cc(OC)cc(OC)c3)c(NC(=O)NC(C)(C)C)nc2n1 | inconclusive: 22.4 µM [inhibitor, single point] | – |
| CCC(=O)N1CCc2cc(S(=O)(=O)N(C)c3ccc(Br)cc3)ccc21 | – | inactive: 0% |
| COc1ccc(S(=O)(=O)c2c(O)c3ccc(C(=O)NCc4ccc(F)cc4)cc3[nH]c2=O)cc1 | inconclusive: 11.2 µM [inhibitor, partial curve] | – |
| COc1ccc(NC(=O)CSc2nc(-c3ccc(F)cc3)[nH]c2-c2ccc(C)cc2)cc1OC | inconclusive: 20 µM [inhibitor, single point] | – |
| Cc1ccc(Cn2nc(C)cc2C(=O)Nc2ccc(Cl)cc2)cc1 | inconclusive: 14.1 µM [inhibitor, partial curve, poor fit] | – |
| Cc1c(C)n(CCCN(C)C)c2ncnc(NC3CCCCC3)c12 | – | inactive: 15.3% |
| O=C(Nc1cccc(S(=O)(=O)N2CCCCC2)c1)c1ccc2ncsc2c1 | inconclusive: 5.62 µM [inhibitor, single point] | – |
| C=CCNC(=S)NC(=O)c1csc([N+](=O)[O-])c1 | – | inactive: -30.5% |
| Cc1cccc2c(C(=O)N3CCCCC3)cc(-c3ccccc3)nc12 | inconclusive: 1.41 µM [inhibitor, partial curve] | – |
| CNCc1ccccc1Sc1cc(O)ccc1O | inconclusive: 8.91 µM [inhibitor, partial curve, poor fit] | – |
| COc1ccccc1OCC(=O)N1CCN(C(=O)c2ccco2)CC1 | inconclusive: 10 µM [inhibitor, partial curve] | – |
| COc1cc(C2CC(=O)Nc3c2c(C)nn3-c2nncc(-c3ccc(C)cc3)n2)cc(OC)c1OC (centres undefined) | inconclusive: 2.24 µM [inhibitor, partial curve, poor fit] | – |
| CCN(CC)CCOC(=O)c1c(C)oc2ccc(OC)cc12 | – | inactive: -0.816% |
| CN(C)CCCN(C(=O)c1cc2cc([N+](=O)[O-])ccc2s1)c1nc2cc3c(cc2s1)OCCO3 | inconclusive: 28.2 µM [inhibitor, single point] | – |
